# Results from the supplement of paper PMC8948288.
# Shown are siRNA guide strands that differ only in the seed, positions 2 to 7.
# How the values were obtained:
# GL261 = experiment: cell viability relative to siNT1 (ATP content); H4 human neuroglioma and GL261 mouse glioma; higher = less toxic; conditions: siRNA concentration 25 nM; 96 h; mouse
# H4 = experiment: as above; conditions: siRNA concentration 10 nM; 96 h; human
# 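Further: cells reverse transfected with siRNA duplexes via lipid reagent, ATP read by luminescence, triplicate wells, values scaled to mean viability with non-targeting control siNT1.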
Sequence,cell viability (GL261) [%],cell viability (H4) [%]
UCGUAUAACAUGUAAACCA,51.2,96.1
UCGUAUCACAUGUAAACCA,38.6,72.6
UCGUAUGACAUGUAAACCA,49.4,115
UCGUAUUACAUGUAAACCA,41.8,80.8
UCGUCAAACAUGUAAACCA,44.6,114
UCGUCACACAUGUAAACCA,28.6,66.6
UCGUCAGACAUGUAAACCA,36.8,84.7
UCGUCAUACAUGUAAACCA,47.5,97.4
UCGUCCAACAUGUAAACCA,47.9,87
UCGUCCCACAUGUAAACCA,11.3,43.1
UCGUCCGACAUGUAAACCA,54,63.4
UCGUCCUACAUGUAAACCA,18.7,33
UCGUCGAACAUGUAAACCA,71,88.3
UCGUCGCACAUGUAAACCA,22.1,25.5
UCGUCGGACAUGUAAACCA,45.1,58.2
UCGUCGUACAUGUAAACCA,37.5,67.7
UCGUCUAACAUGUAAACCA,83.2,101
UCGUCUCACAUGUAAACCA,13,51.4
UCGUCUGACAUGUAAACCA,51.3,82.5
UCGUCUUACAUGUAAACCA,39,96.2
UCGUGAAACAUGUAAACCA,49.4,85.1
UCGUGACACAUGUAAACCA,37.1,54.6
UCGUGAGACAUGUAAACCA,39.7,77
UCGUGAUACAUGUAAACCA,44.8,72.3

Sequence,cell viability (GL261) [%],cell viability (H4) [%]
UCGUGCAACAUGUAAACCA,52,94.6
UCGUGCCACAUGUAAACCA,31.3,69.4
UCGUGCGACAUGUAAACCA,29.9,124
UCGUGCUACAUGUAAACCA,65.5,79.4
UCGUGGAACAUGUAAACCA,47,67.3
UCGUGGCACAUGUAAACCA,16.9,16.6
UCGUGGGACAUGUAAACCA,23,27.7
UCGUGGUACAUGUAAACCA,14.2,43.7
UCGUGUAACAUGUAAACCA,67.2,95.5
UCGUGUCACAUGUAAACCA,20.8,72.4
UCGUGUGACAUGUAAACCA,28.6,86.7
UCGUGUUACAUGUAAACCA,18.2,87
UCGUUAAACAUGUAAACCA,39.6,87.6
UCGUUACACAUGUAAACCA,53.1,62.6
UCGUUAGACAUGUAAACCA,57.2,82.2
UCGUUAUACAUGUAAACCA,40.3,113
UCGUUCAACAUGUAAACCA,46.2,70.6
UCGUUCCACAUGUAAACCA,11.9,14
UCGUUCGACAUGUAAACCA,53.8,86.2
UCGUUCUACAUGUAAACCA,15.9,50.7
UCGUUGAACAUGUAAACCA,61,71.7
UCGUUGCACAUGUAAACCA,12.1,14.4
UCGUUGGACAUGUAAACCA,50,60.2
UCGUUGUACAUGUAAACCA,26.8,68.8

Sequence,cell viability (GL261) [%],cell viability (H4) [%]
UCGUUUAACAUGUAAACCA,61.8,105
UCGUUUCACAUGUAAACCA,31.3,74
UCGUUUGACAUGUAAACCA,43.1,92.4
UCGUUUUACAUGUAAACCA,56.4,98.1
UCUAAAAACAUGUAAACCA,52.5,75.5
UCUAAACACAUGUAAACCA,61,84.2
UCUAAAGACAUGUAAACCA,54.8,94.3
UCUAAAUACAUGUAAACCA,100,84.5
UCUAACAACAUGUAAACCA,55.3,74
UCUAACCACAUGUAAACCA,39.8,85.2
UCUAACGACAUGUAAACCA,68.1,80
UCUAACUACAUGUAAACCA,61,68.7
UCUAAGAACAUGUAAACCA,52.6,83.1
UCUAAGCACAUGUAAACCA,59.8,79.1
UCUAAGGACAUGUAAACCA,53,84
UCUAAGUACAUGUAAACCA,45.5,115
UCUAAUAACAUGUAAACCA,59.3,98.5
UCUAAUCACAUGUAAACCA,60.3,97.7
UCUAAUGACAUGUAAACCA,61.2,87.2
UCUAAUUACAUGUAAACCA,61.6,71.6
UCUACAAACAUGUAAACCA,59.3,98
UCUACACACAUGUAAACCA,69.1,87.3
UCUACAGACAUGUAAACCA,71.8,91.8
UCUACAUACAUGUAAACCA,53.9,122

Sequence,cell viability (GL261) [%],cell viability (H4) [%]
UCUACCAACAUGUAAACCA,54.8,82.9
UCUACCCACAUGUAAACCA,43.5,67.7
UCUACCGACAUGUAAACCA,70.6,104
UCUACCUACAUGUAAACCA,46.6,83.9
UCUACGAACAUGUAAACCA,65.4,92
UCUACGCACAUGUAAACCA,30.1,79
UCUACGGACAUGUAAACCA,51.8,69.9
UCUACGUACAUGUAAACCA,52.1,83.9
UCUACUAACAUGUAAACCA,80.3,98
UCUACUCACAUGUAAACCA,35.1,91.2
UCUACUGACAUGUAAACCA,60.9,92.2
UCUACUUACAUGUAAACCA,65.9,108
UCUAGAAACAUGUAAACCA,70.3,78.1
UCUAGACACAUGUAAACCA,60.9,79.5
UCUAGAGACAUGUAAACCA,46.3,115
UCUAGAUACAUGUAAACCA,59.7,75.3
UCUAGCAACAUGUAAACCA,52.2,100
UCUAGCCACAUGUAAACCA,46.1,29
UCUAGCGACAUGUAAACCA,63.9,79.7
UCUAGCUACAUGUAAACCA,50.2,56.3
UCUAGGAACAUGUAAACCA,81.2,87.3
UCUAGGCACAUGUAAACCA,28.3,45.9
UCUAGGGACAUGUAAACCA,45.8,83.7
UCUAGGUACAUGUAAACCA,60.4,79.6

Sequence,cell viability (GL261) [%],cell viability (H4) [%]
UCUAGUAACAUGUAAACCA,61.7,79.1
UCUAGUCACAUGUAAACCA,46.3,78.3
UCUAGUGACAUGUAAACCA,77.6,79.5
UCUAGUUACAUGUAAACCA,56,68.9
UCUAUAAACAUGUAAACCA,51.1,105
UCUAUACACAUGUAAACCA,51.4,89.6
UCUAUAGACAUGUAAACCA,61.1,94.5
UCUAUAUACAUGUAAACCA,59.6,78
UCUAUCAACAUGUAAACCA,52.7,114
UCUAUCCACAUGUAAACCA,46.4,84.3
UCUAUCGACAUGUAAACCA,60.4,74.4
UCUAUCUACAUGUAAACCA,44,81.8
UCUAUGAACAUGUAAACCA,49.8,76.1
UCUAUGCACAUGUAAACCA,14,45.7
UCUAUGGACAUGUAAACCA,33.2,106
UCUAUGUACAUGUAAACCA,32.6,72.3
UCUAUUAACAUGUAAACCA,63.3,97.3
UCUAUUCACAUGUAAACCA,32.8,107
UCUAUUGACAUGUAAACCA,50.1,91.5
UCUAUUUACAUGUAAACCA,60.8,77.2
UCUCAAAACAUGUAAACCA,30.8,91.4
UCUCAACACAUGUAAACCA,34.4,108
